Data: PubChem BioAssay AID504832 (National Center for Advancing Translational Sciences (NCATS), 2011)
Out of some 310,000 compounds screened, about 18,000 (5.8%) were called active. Inconclusive means that the source gave no clear call. Such entries were picked first, then a sample of the others. Calls come from the whole dose curve; as a rule, active = well fitted inhibition curve with a large enough effect; inconclusive = small, poorly fitted or top-dose-only effect, or another doubt; inactive = no such curve, though single readings can be large or run the other way. Potencies of inconclusive entries are left out as doubtful fits.

Assay: Primary qHTS for delayed death inhibitors of the malarial parasite plastid, 48 hour incubation
Settings: P. falciparum luciferase growth in erythrocytes; series mostly up to 28.7 µM
Summary of the method: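 First compound was added to culture medium, then infected red cells at 0.1% parasitemia and 2% hematocrit (final). After incubation at 37 C under 5% CO2, luciferase detection reagent was dispensed and light output recorded.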
Potency is the fitted concentration of half-maximal effect; tags give direction and shape of the fitted curve.

| SMILES | Potency |
| --- | --- |
| CCC(C)Sc1ccc([C@H]2N[C@@](C)(C(=O)OC)[C@H]3C(=O)N(CC)C(=O)[C@@H]23)cc1 (some centres not stated) | inconclusive [inhibitor, single point] |
| CC[n+]1c(/C=C/C=C/N(C(C)=O)c2ccccc2)sc2cc(OC)ccc21 | active: 9.28 µM |
| Cc1nnc2ccc(-c3cccc(NS(=O)(=O)c4ccccc4Cl)c3)nn12 | active: 11.7 µM |
| CCn1cc(CCCC(=O)NCc2cccc(OC)c2)c2ccccc21 | inconclusive [inhibitor, single point] |
| O=C(c1ccc(S(=O)(=O)Nc2ccccc2)cc1)N1CCCC1 | inconclusive [inhibitor, partial curve, poor fit] |
| Cc1cccc(CN2C(=O)CSc3ccc(C(=O)NC4CC4)cc32)c1 | inactive |
| CCSC(C)CC1C/C(=N/O)c2c(CC)noc2C1 (configuration not stated) | active: 14.7 µM |
| CC(C)n1ncc2c(C(=O)N3CCN(c4ccccc4)CC3)cc(-c3ccccc3)nc21 | inconclusive [inhibitor, single point] |
| COc1ccccc1-c1cc(-c2ccc(O)cc2)nc(N)c1C#N | inconclusive [inhibitor, partial curve] |
| C/C(=N\NC(=O)c1ccc(CSc2nc(C)cc(C)n2)cc1)c1ccco1 | inconclusive [inhibitor, partial curve] |
| CCOc1ccc(CCNC(=O)CN2C(=O)NC3(CCCc4ccccc43)C2=O)cc1OCC (configuration not stated) | inconclusive [inhibitor, partial curve] |
| CCN(CC)S(=O)(=O)c1ccc(Cl)c(C(=O)Nc2cccnc2)c1 | inactive |
| Cn1c(SCC(=O)Nc2nccs2)nnc1C12CC3CC(CC(C3)C1)C2 | inactive |
| CCOc1cc(/C=N/Nc2nnc(C)n2N)ccc1O | inconclusive [inhibitor, single point] |
| CCOc1ccc(C(=O)N2CCc3cc(OC)c(OC)cc3C2)cc1OCC | inconclusive [inhibitor, single point] |
| COc1cccc(C(=O)Nc2nnc(CCS(=O)(=O)c3ccc(C)cc3)s2)c1 | inactive |
| O=C(CCC(=O)N1CCOCC1)Nc1ccc(Cl)c(Cl)c1 | inactive |
| CCOc1ncccc1C(=O)OCC(=O)N(CC(C)C)c1c(N)n(Cc2ccccc2)c(=O)[nH]c1=O | inconclusive [inhibitor, single point] |
| O=c1c2c3c(sc2nc2n1N=C(c1cccs1)CS2)CCCC3 | inactive |
| CCOc1ccc(S(=O)(=O)N2CCCCC2)cc1NC(=O)c1c(CC)noc1C | inconclusive [inhibitor, single point] |
| CCNC(=O)CC1C(=O)N(c2cccc(C)c2)C(=O)N1CCC(C)C (configuration not stated) | inactive |
| O=C(OCc1nc2ccsc2c(=O)[nH]1)c1ccccc1 | inactive |
| O=C(NCc1cccnc1)c1ccccc1NS(=O)(=O)c1ccc(F)cc1 | inactive |
| COc1cc(C(=O)NCCCN2CCCC2=O)cc(Br)c1OCc1ccccc1 | active: 9.28 µM |

| SMILES | Potency |
| --- | --- |
| NNC(=O)c1cnn(-c2ccccc2)c1-n1cccc1 | inactive |
| CCOC(=O)C[n+]1c(C)sc2ccc(OC)cc21 | inconclusive [inhibitor, single point] |
| CCC(C)c1ccc(NC(=S)Nc2ccc(OC)cc2C)cc1 (configuration not stated) | inactive |
| Cc1ccc(C(=O)N(C)CC(=O)Nc2ccc(Cl)c(C(F)(F)F)c2)cc1S(=O)(=O)N1CCCCC1 | active: 9.28 µM |
| Cc1cccn2c(=O)c(/C=C(\C#N)C(=O)NCc3ccco3)c(N3CCCCC3)nc12 | inconclusive [inhibitor, single point] |
| O=S(=O)(c1cccc(-c2nnc(SC(F)F)n2-c2ccccc2)c1)N1CCCCC1 | active: 11.7 µM |
| O=C1CC(N2CCN(c3ccccn3)CC2)C(=O)N1CC(c1ccccc1)c1ccccc1 (configuration not stated) | inconclusive [inhibitor, partial curve] |
| COc1ccccc1NC1=NC(C)(C)N=C(N)N1 | inconclusive [inhibitor, single point] |
| C=CCn1c2ccccc2c2nnc(SC(CC)C(=O)Nc3sc4c(c3C#N)CCCC4)nc21 (configuration not stated) | inactive |
| COc1cccc(C2CC(C(F)(F)F)n3nc(C(=O)NCc4cccnc4)cc3N2)c1 (configuration not stated) | inactive |
| CCc1ccc(N(C(=O)c2snc(C(N)=O)c2N)C(C(=O)NCC2CCCO2)c2ccco2)cc1 (configuration not stated) | inconclusive [inhibitor, single point] |
| O=C(Cc1ccccc1)N/N=C/C=C/c1ccccc1[N+](=O)[O-] | inactive |
| CNS(=O)(=O)c1cccc(C(=O)OCCCC(=O)c2ccccc2)c1 | inconclusive [inhibitor, single point] |
| O=C(Nc1cc2c3c(c1)C1CCCC1CN3CC1CCCC21)c1ccc([N+](=O)[O-])cc1 (configuration not stated) | inconclusive [inhibitor, single point] |
| O=C(Nc1ccc(N2CCCC2)cc1)c1cccc(Cl)c1 | inactive |
| Cc1ccc(S(=O)(=O)N2CCN(C(=O)CN3C(=O)CNC3=O)CC2)cc1 | inactive |
| N#Cc1ccc(C(c2nnnn2CCc2ccccc2)N2CCCCCC2)cc1 (configuration not stated) | active: 1.65 µM |
| Cc1ccc(S(=O)(=O)N2CCCN(C(=O)CNC(=O)c3ccccc3)CC2)cc1 | inconclusive [inhibitor, partial curve, poor fit] |
| O=C(O)C1CC(O)CN1C(=O)c1ccco1 (configuration not stated) | inconclusive [inhibitor, partial curve, poor fit] |
| C#CCn1c(CCNC(=O)c2ccco2)nc2ccccc21 | inactive |
| O=C(c1cccc(-n2cccc2)c1)N1CCN(S(=O)(=O)c2ccccc2Br)CC1 | inconclusive [inhibitor, partial curve, poor fit] |
| Cc1cccc(C)c1NC(=O)NCCCN1CCN(c2ccccc2)CC1 | inactive |
| O=C(COc1ccccc1Cl)N1CCN(c2ccc([N+](=O)[O-])c(N3CCCCC3)c2)CC1 | inconclusive [inhibitor, single point] |
